Test results taken from publication PMC5509671, “Quantitative interactome of a membrane Bcl-2 network identifies a hierarchy of complexes for apoptosis regulation” (Nature Communications, 2017).

Key:
[1] = target: the molecule itself; test: fluorescence correlation spectroscopy in solution (diffusion coefficient D); D of the labelled protein alone, on dilution (Bcl-xLG, below 20 nM D grew) or with a second Bcl-2 protein; 150 mM NaCl, 20 mM Tris, pH 7.5; dimer to monomers
[2] = target: the molecule itself; test: fluorescence cross-correlation spectroscopy (FCCS) in solution; both partners free in solution, one with a green and one with a red dye; 150 mM NaCl, 20 mM Tris, pH 7.5; incubated at least 30 min (1 h for the cBidG titration); protein concentrations up to 200 nM; CC above 2.8% indicates interaction

B1: full length human Bcl-xL S4C, C151A, labelled (natural protein)
chain: not shown
modifications: labelled with ATTO 488-maleimide (Bcl-xLG), ATTO 655-maleimide (Bcl-xLR) or Alexa 405 (Bcl-xL405)
notes: Bcl-xL, human, full length, with S4C, C151A; The label would sit on the single cysteine C4 (surmised); The three dye forms are written as one molecule; also called Bcl-xLG; Bcl-xLR; source: E. coli BL21/RILP, purified (IMPACT intein system, anion exchange), labelled
What does the source list for B1?
Kd [1]: ~10 nM; stoichiometry N [1]: 2; Kd [2]: ~600 nM
